Measured values published in PubChem BioAssay AID588591 (National Center for Advancing Translational Sciences (NCATS), 2011).
In all, about 390,000 compounds went through this assay and about 4,700 (1.2%) were called active. Another 4% or so got no clear call; they are omitted. Calls follow the shape of the dose curve; as a rule, active = well fitted inhibition curve with a large enough effect; inconclusive = small, poorly fitted or top-dose-only effect, or another doubt; inactive = no such curve, though single readings can be large or run the other way. The list shows a part of the results, in another mix than the full data.

Target: DNA polymerase eta (Homo sapiens) (UniProt Q9Y253)
Assay: qHTS for Inhibitors of Polymerase Eta
Conditions: recombinant Pol eta, fluorescent DNA replication assay; series mostly up to 114 µM; activity change, negative = inhibition: at the top concentration
In short: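 Fluorescent replication assay: 50 nM final substrate added after a 15 min room-temperature compound preincubation with 10 nM enzyme. Signal taken at 0 min and again at 10 min.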
% is scaled to controls: 0 for no effect and ±100 for the full control effect; potency is read from the fitted curve at half-maximal effect.

Sequence of UniProt Q9Y253 (Q9Y253 whole entry, looked up): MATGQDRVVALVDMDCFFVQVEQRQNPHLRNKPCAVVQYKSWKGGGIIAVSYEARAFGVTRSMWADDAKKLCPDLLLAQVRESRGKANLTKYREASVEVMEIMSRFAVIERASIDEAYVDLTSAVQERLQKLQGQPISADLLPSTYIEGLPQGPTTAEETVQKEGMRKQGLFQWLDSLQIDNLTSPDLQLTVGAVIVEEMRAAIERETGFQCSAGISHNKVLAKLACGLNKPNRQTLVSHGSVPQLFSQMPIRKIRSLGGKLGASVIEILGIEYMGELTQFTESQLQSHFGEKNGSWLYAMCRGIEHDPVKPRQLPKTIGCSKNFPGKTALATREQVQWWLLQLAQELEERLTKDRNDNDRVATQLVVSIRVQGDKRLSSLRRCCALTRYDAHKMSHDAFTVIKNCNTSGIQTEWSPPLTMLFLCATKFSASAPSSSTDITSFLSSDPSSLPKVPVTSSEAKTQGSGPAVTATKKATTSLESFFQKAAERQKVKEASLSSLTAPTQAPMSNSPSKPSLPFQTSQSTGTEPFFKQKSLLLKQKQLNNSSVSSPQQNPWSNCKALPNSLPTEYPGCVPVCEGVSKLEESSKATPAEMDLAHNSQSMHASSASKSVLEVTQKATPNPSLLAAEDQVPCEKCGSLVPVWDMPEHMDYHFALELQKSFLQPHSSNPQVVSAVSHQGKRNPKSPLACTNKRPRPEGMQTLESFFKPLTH

Potency, active:
O=C(Nc1ccccc1F)c1cc(-c2ccco2)nc2ccccc12 79.4 µM
Cc1ccc[n+](-c2nc([O-])sc2C=O)c1 22.4 µM
O=C1NN(c2ccc(Cl)cc2)C(=O)/C1=C\c1ccc(-c2cccc(C(=O)O)c2)o1 4.47 µM
O=C(NC1(O)C(=O)c2ccccc2C1=O)c1c(Cl)cccc1Cl 44.7 µM
O=C(O)COc1ccccc1/C=C1\SC(=S)N(/N=C/c2ccccc2O)C1=O 22.4 µM
COC1=C/C(=C/c2c(N)n3nc(CC(=O)N4CCCCC4)sc3nc2=O)C=CC1=O 50.1 µM
Cc1oc2c(cc(NS(=O)(=O)c3ccc(C(C)C)cc3)c3ccccc32)c1C(=O)O 44.7 µM
CCc1cc(C(=O)Nc2ccc(S(=O)(=O)NC3=NCCCCC3)cc2)sc1C 56.2 µM
CC(=O)N=c1c(C#N)cc2c(=O)n3cccc(C)c3nc2n1Cc1ccco1 31.6 µM
N#C/C(=C\c1ccc(O)c(O)c1)C(=O)N1CCc2ccccc21 39.8 µM
O=C(O)c1cccc(CN2C(=O)S/C(=C/c3cccc([N+](=O)[O-])c3)C2=O)c1 79.4 µM
O=C(C1Cc2ccccc2CN1C(=O)c1ccccc1)N1CCN(c2ccccc2)CC1 (centres undefined) 79.4 µM
COCCN1C(=O)C(=O)/C(=C(/O)c2cccc(OC)c2)C1c1ccco1 (centres undefined) 10 µM
CNc1ccc(Br)cc(C(=O)/C=C/c2cccc(Cl)c2Cl)c1=O 44.7 µM
CC(=O)COC(=O)C1CCN(S(=O)(=O)c2cc([N+](=O)[O-])ccc2Cl)CC1 31.6 µM
COc1cc(/C=N/Nc2ccc(Cl)c(C(=O)O)c2)ccc1OC(=O)c1cccs1 79.4 µM

Activity change, negative = inhibition, inactive:
Cc1cc(=O)[nH]c(NCc2ccccc2)n1 36.2%
COc1ccc(-c2cn3cccnc3n2)cc1NC(=O)c1ccccc1C(F)(F)F 17.1%
COc1ccc(S(=O)(=O)Cc2ccc(C(=O)N3CCN(c4cc(C)ccc4C)CC3)o2)cc1 -14%
CCC(Oc1cc(Cl)ccc1Cl)C(=O)NN1C(=O)C2C3CCC(C3=C(C)C)C2C1=O (centres undefined) 1.79%
C[C@@H]1O[C@@H](OC[C@H]2O[C@@H](Oc3c(-c4ccc(O)cc4)oc4cc(O)cc(O)c4c3=O)[C@H](O)[C@@H](O)[C@@H]2O)[C@H](O)[C@H](O)[C@H]1O -18.3%
Oc1cc2c(c(Cl)c1O)CCNCC2c1ccccc1 (centres undefined) -6.57%
N#C/C(=C/C1=C(N2CCOCC2)C(=C/c2cccc([N+](=O)[O-])c2)/CC1)C(=O)Nc1ccccc1F 89.5%
O=S(=O)(Nc1cc(S(=O)(=O)N2CCCC2)ccc1O)c1ccc(Cl)s1 4.6%
Nc1c(C(=O)N/N=C/c2ccc([N+](=O)[O-])cc2)sc2nnc(-c3ccccc3)c(-c3ccccc3)c12 23.1%
COC(=O)C1=C(N)Oc2cc(C)n(CCc3ccccc3)c(=O)c2C1c1cccnc1 (centres undefined) -14.4%
CCOc1ccc(/C=C2\NC(=S)NC2=O)cc1 44.6%
CC(=O)Nc1ccc(/C=N/NC(=O)c2cc(-c3ccco3)nc3ccccc23)cc1 18%
CCOC(=O)C(NC(C)=O)(Nc1ccc(S(=O)(=O)Nc2onc(C)c2C)cc1)C(F)(F)F (centres undefined) -7.52%
CC(=O)N1CCc2cc(S(=O)(=O)N3CCOCC3)ccc21 -13.5%
N#CC(=C(O)COC(=O)Cc1c[nH]c2ccccc12)c1nc2ccccc2[nH]1 -23.2%
COc1cccc(/C=C(\C#N)c2nc3ccccc3[nH]2)c1OCC(=O)O 15.1%
Cc1cc(C)cc(NC(=O)Cn2c(=O)n(C(C)C)c(=O)c3oc4ccccc4c32)c1 17.7%
OCC[C@@H]1C[C@H](O)[C@@H](O)[C@@]2(CCCc3ccccc3O2)O1 0.879%
Cc1ncc([N+](=O)[O-])n1Cc1ccc(Cl)cc1 31.2%
CCc1ccccc1NS(=O)(=O)c1ccc2[nH]cc(C(=O)NC3CCCC3)c(=O)c2c1 3.42%
O=C(N/N=C/C(Br)=C\c1ccccc1)c1n[nH]c2c1CCC2 -6.48%
CC1CN(c2ccc([N+](=O)[O-])cc2Cl)CCN1S(C)(=O)=O (centres undefined) 35.7%
Cc1ccccc1NC(=O)c1cn(-c2ccccc2)nc1-c1ccccc1 -27.6%
Cc1[nH]c(=S)c(C#N)c(C)c1Cc1ccccc1 20.9%
Cc1cc2nc(/C(C#N)=C/c3ccncc3)[nH]c2cc1C 34.3%
Cc1cccn2c(=O)c3cc(C(N)=S)c(=N)n(CCCN4CCOCC4)c3nc12 35.2%
C(=N\n1cnnc1)/c1nc2ccccc2[nH]1 17.5%
O=C(NCc1cccs1)c1ccc2c(c1)sc1nc(-c3ccc(F)cc3)cn12 18.9%
CCC(C)[C@H](NC(=O)NCCC1=CCCCC1)C(=O)O (some centres undefined) 31.2%
Cc1ccc(Cl)cc1NC1=C/C(=N\S(=O)(=O)c2cccs2)c2ccccc2C1=O -16.2%
COc1ccc(N2CCN(Cc3nc4c(c(=O)[nH]c(=O)n4C)n3Cc3ccccc3F)CC2)cc1 19.1%
Cc1ccc2nc(-c3ccccn3)c(Nc3ccccc3C)n2c1 -28.9%
CCc1ccc(-c2cc(C)no2)cc1S(=O)(=O)NCc1ccco1 -5.54%
O=C(CSc1nc2c([nH]c3ccccc32)c(=O)n1-c1ccccc1)c1ccc(Cl)cc1 18.8%
COc1ccc(/C=C2\SC(c3ccc(C)cc3)=NC2=O)cc1OC -4.35%
CN(Cc1nc(-c2ccccc2)no1)C1CCOCC1 18.8%
CCCc1cc(=O)oc2c(C)c(OCc3nn[nH]n3)ccc12 31.4%
CCOc1ccccc1CNS(=O)(=O)c1ccc(-c2cnc(C3CC3)o2)cc1 -10%
CCOC(=O)/C(=C/c1ccc(OC(F)F)cc1)C1=Nn2c(nnc2-c2ccc(Cl)cc2)SC1 -9.32%
C[C@H](CO)N1C[C@H](C)[C@@H](CN(C)C(=O)Nc2ccc(C(F)(F)F)cc2)Oc2c(NC(=O)c3ccncc3)cccc2C1=O -12.6%
CC(C)C[C@@H](CO)N(Cc1ccccc1)S(=O)(=O)N(Cc1ccccc1)[C@H](CO)CC(C)C -12.4%
CC(C)CC(=O)Nc1nnc(S(=O)(=O)N(C)c2ccc(Cl)cc2)s1 -18.8%
COc1ccc(C)cc1NC(=O)CN1CCCN(S(=O)(=O)c2ccc(Br)cc2)CC1 -20.1%
